This is an account of results in paper PMC12136788.

The other results are listed elsewhere or left out.

T1: UNK ZnF1-3 (human, UniProt Q9C0B0 31-174)
T1 sequence: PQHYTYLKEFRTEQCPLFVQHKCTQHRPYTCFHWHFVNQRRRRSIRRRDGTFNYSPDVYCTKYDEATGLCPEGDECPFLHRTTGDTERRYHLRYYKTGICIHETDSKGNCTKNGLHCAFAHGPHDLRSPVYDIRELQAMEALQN

B1: chr19:8871807:8871808:-_ENSMUSG00000071662_ENSMUST00000096261|mus_hu|FALSE|FALSE (ssRNA)
RNA: GGGAGUUCUACAGUCCGACGAUCCACGACCUCCCCUUUAAAUGGCCGGAAAACAAUGGCCUUGUACUUAACUGGAUAAAGGACAAAGCCUCGGCCUGGCUGGAUCACACCAGCACCAAUAUUGUCAAUGGUGGUGACAGCAAUCAACAGAGGAUUGAGCAUCA
B2: chr12:118673417:118673418:-_ENSG00000135090_ENST00000392533|hu_hu|motif|central (ssRNA)
RNA: GGGAGUUCUACAGUCCGACGAUCAGGUGUGCCCACGAAGGAGUUGGCAGGAGAAGCCAUUGAAGCAGAUCCAAAAUCAGCGGGUUUUACCUGACCUGGCUCUGUUAGAAGAAUAUUUCCUGCUUUAAUAUCCCUAUGAAUCAACAACAGAGGAUUGAGCAUCA
B3: 24911559_24912643_785_3pUTR_ENSMUSG00000006476_ENSMUST00000102931|mouse|control|control (ssRNA)
RNA: GGGAGUUCUACAGUCCGACGAUCCCAGGUACGGAUGGGGACAUCAUCAGACACUCCAUCAACGCUAUACAUCCUUUCCAGCUUCUUGUGGCGGCCAGGAGCCUCAGGUAGAGGUGGCUGCUCCAGCCCAAAGGCCCGAGAAGACAACAGAGGAUUGAGCAUCA
B4: chr17:60770872:60770873:+_ENSG00000011028_ENST00000303375|hu_hu|hu_hu_hu_mus_True|1_98 (ssRNA)
RNA: GGGAGUUCUACAGUCCGACGAUCUCUUUAAAAAAAAUUCCUUUUUUACAAACAAUAAUAGCACAUUUCGAGAAUCAAGAACUACAAUAGAGGGUCCGCUUUGAGUUUUUGUUCACAUCGUCCUGCACUGGGACACGACCAGGACAACAGAGGAUUGAGCAUCA
B5: 44549918_44550445_1859_CDS_ENSG00000138078_ENST00000409411|human|control|control (ssRNA)
RNA: GGGAGUUCUACAGUCCGACGAUCAGUAUAACUUACAAUUCCUUUCAGAGGUACCCGUUCAUCGUUUUCAUAUGCCGUUAUGUGAAUUGAAGGAUAAUGCUGAGGUUUAAUAUUUUGAUAGGGACAGUAACGUUUUAUGUAGUUCAACAGAGGAUUGAGCAUCA
B6: 54633415_54633535_2776_3pUTR_ENSG00000094916_ENST00000209875|human|control|control (ssRNA)
RNA: GGGAGUUCUACAGUCCGACGAUCAGGCCUUUAAUUCCUUCAGAGAGAGAAGGAAUAUAGAGAUAAAACUCCCACCCACUUGAGGUAUGGUUUAUGAGCUCUUGCCCAAUCACAUUACCAUUCAGAAGGAUUUUCCUGGCUGACCAACAGAGGAUUGAGCAUCA
B7: chr7:102952668:102952669:+_ENSG00000105819_ENST00000453466|hu_hu|FALSE|FALSE (ssRNA)
RNA: GGGAGUUCUACAGUCCGACGAUCCUGUUUAAAAUCUGGUAGUUGCUUAAUGGGACCAACAGCAGCAAUAGCUGGACUCCUAUUAUAAAUGUAUUUGGUACAUACUUCUCGAAUUGUCUCAGCAUUCACAGCAUCAAUUCUUGCCAACAGAGGAUUGAGCAUCA
B8: chr3:150289932:150289933:+_ENSG00000144895_ENST00000460851|hu_hu|hu_hu_hu_mus_False|8_98 (ssRNA)
RNA: GGGAGUUCUACAGUCCGACGAUCCUUGUAGUUUUUAACAUCCCACACUUCCAUUUGUCCUCGAAGAUUUCCAAAUCCAGCCAGCACUAAUAUAUGUCCAUGAGGGCUAUAGAAGGCUGCGUUGCGAGGACCAGUUCCAAAGUCCAACAGAGGAUUGAGCAUCA
B9: chr7:102944291:102944292:+_ENSG00000105819_ENST00000453466|hu_mus|FALSE|FALSE (ssRNA)
RNA: GGGAGUUCUACAGUCCGACGAUCCUCAAUCUCUGCUUCUCCCAGUGUGCUGUUCUGAAUUAUGUCAGCAAGAAUUUCUACAGCUCUGGGCAAAUCUCUCGAGAAUGCUUUGGCGUAGUAGACAGUCUGCUCUCUGGAGGUAUACAACAGAGGAUUGAGCAUCA
B10: chr1:52991732:52991733:-_ENSG00000134744_ENST00000257177|hu_mus|motif|central (ssRNA)
RNA: GGGAGUUCUACAGUCCGACGAUCUUUAGGGCCUGGAACACUGGCAGCGUUUACUUUACAUGAUUUAGCUUCUGUUUUUUCGGUACAAAUAUCAUUUUGCUUGGUUUUUUUACUACUAUUUCUAUUCAGAGAGCUGGUCCCAAUCAACAGAGGAUUGAGCAUCA
B11: chr11:61557309:61557310:-_ENSG00000134825_ENST00000537328|hu_hu|motif|central (ssRNA)
RNA: GGGAGUUCUACAGUCCGACGAUCGAUGCCAACCCAGAGCAGCAGGAAGAGGACUCCAAAGCCCAUGAAGAGUGAGGCCACGGAGGAGAUGAGGAGCUCUUUAUAGAUAUCACGAGUGUACUUGGUAGAGGUGACCUCGUAAACCAACAGAGGAUUGAGCAUCA
B12: chr2:48026839:48026840:+_ENSG00000116062_ENST00000540021|hu_hu|hu_hu_hu_mus_False|18_28 (ssRNA)
RNA: GGGAGUUCUACAGUCCGACGAUCAUAGUGAGCCACUAGCGUCCUAAAUCUGGAACAGUGGCGGUCAUCCGAAAACUGGCCGAUGAAAAACUUGCCCAGUGAAGUGUCAACAAAGCACACACCAUAUACACGAGUGUGACCAGACAACAGAGGAUUGAGCAUCA
B13: chr2:26350769:26350770:+_ENSG00000084733_ENST00000264710|hu_hu|FALSE|FALSE (ssRNA)
RNA: GGGAGUUCUACAGUCCGACGAUCGAUAUCUUCAGCUAACGUGAGGAACGCCUUUUCGAUGUUUAUAUUUGCUUUUGCACUAGUCUCAAAAAACCUAAUACCAUGCUCCCUUGCAAUCUGUUCUCCUUUUCCUUUAGGUACAACCAACAGAGGAUUGAGCAUCA
B14: chr1:21106938:21106939:-_ENSG00000127483_ENST00000312239|hu_hu|FALSE|FALSE (ssRNA)
RNA: GGGAGUUCUACAGUCCGACGAUCUGGGAGUGCCUUAGGAUGGACGAGUUCACCUUGAGACGUAUCAGUCGCCAUUUUAAAUAAUUUCUAGGCCCGAGUACAGGUUACACUCUGAAGCCUCUGCUGUUAACCACAAGGAUUUUUCAACAGAGGAUUGAGCAUCA

The assay concerns the target T1, UNK ZnF1-3. Put plainly: nsRBNS (natural sequence RNA bind-n-seq); RBNS binding buffer (assumed for nsRBNS): 25 mM Tris pH 7.5, 150 mM KCl, 3 mM MgCl2, 0.01% Triton X-100, 500 ug/ml BSA, 20 U/ml SUPERase-In, 4 C; UNK is unkempt and MSI1 is Musashi-1; names of the RNAs are library labels; protein concentration not given here; high values mean tight binding.
Turning to B1, the binding signal was 1.04 enrichment R.

Molecule B2 came in with a binding signal of 0.664 enrichment R.

Turning to B3, the binding signal was found to be 1.09 enrichment R.

Turning to B4, the binding signal is 1.21 enrichment R.

Molecule B5 came in with a binding signal of 1.34 enrichment R.

Take B6: the binding signal came out at 0.903 enrichment R.

B7 registered a binding signal of 1.59 enrichment R.

With B8, the binding signal was 0.93 enrichment R.

The molecule B9 had a binding signal of 1.07 enrichment R.

As to B10, the binding signal stood at 0.721 enrichment R.

B11 showed a binding signal of 2.67 enrichment R.

For the molecule B12, the binding signal stood at 1.39 enrichment R.

The molecule B13 had a binding signal of 0.629 enrichment R.

B14 yielded a binding signal of 0.962 enrichment R.
